According to the supplement of paper PMC8728848:
The other results are listed elsewhere or left out.

Legend:
Assay in all cases: glycan array binding signal (z-score within array); higher = stronger binding
Conditions in all cases: glycan notation: IUPAC condensed, linker removed
[1] = biological target: Neu5Ac(a2-3)Gal(b1-3)GalNAc
How it was run: (§1)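 The Consortium for Functional Glycomics database supplied 3228 glycan arrays, of which those lacking an available protein sequence were dropped. The binding signal, a within-array Z-score, was averaged across arrays of the same protein sequence and across linkers. Negative scores can be read as non-binding.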

[2] = biological target: Neu5Ac(a2-3)Gal(b1-3)GalNAc(b1-3)Gal(a1-4)Gal(b1-4)Glc
How it was run: as §1

[3] = biological target: Neu5Ac(a2-3)Gal(b1-3)GalNAc(b1-4)[Neu5Ac(a2-3)]Gal(b1-4)Glc
How it was run: as §1

[4] = biological target: Neu5Ac(a2-3)Gal(b1-3)GalNAc(b1-4)[Neu5Ac(a2-8)Neu5Ac(a2-3)]Gal(b1-4)Glc
How it was run: as §1

[5] = biological target: Neu5Ac(a2-3)Gal(b1-3)GalNAc6S
How it was run: as §1

[6] = biological target: Neu5Ac(a2-3)Gal(b1-3)GlcNAc
How it was run: as §1

[7] = biological target: Neu5Ac(a2-3)Gal(b1-3)GlcNAc(b1-2)Man
How it was run: as §1

[8] = biological target: Neu5Ac(a2-3)Gal(b1-3)GlcNAc(b1-2)Man(a1-3)[GlcNAc(b1-4)][Neu5Ac(a2-3)Gal(b1-3)GlcNAc(b1-2)Man(a1-6)]Man(b1-4)GlcNAc(b1-4)GlcNAc
How it was run: as §1

[9] = biological target: Neu5Ac(a2-3)Gal(b1-3)GlcNAc(b1-2)Man(a1-3)[Neu5Ac(a2-3)Gal(b1-3)GlcNAc(b1-2)Man(a1-6)]Man(b1-4)GlcNAc(b1-4)GlcNAc
How it was run: as §1

[10] = biological target: Neu5Ac(a2-3)Gal(b1-3)GlcNAc(b1-3)Gal(b1-3)GlcNAc
How it was run: as §1

[11] = biological target: Neu5Ac(a2-3)Gal(b1-3)GlcNAc(b1-3)Gal(b1-4)GlcNAc
How it was run: as §1

[12] = biological target: Neu5Ac(a2-3)Gal(b1-3)GlcNAc(b1-3)GalNAc
How it was run: as §1

[13] = biological target: Neu5Ac(a2-3)Gal(b1-3)GlcNAc(b1-4)Gal(b1-4)Glc
How it was run: as §1

[14] = biological target: Neu5Ac(a2-3)Gal(b1-3)GlcNAc(b1-6)GalNAc
How it was run: as §1

[15] = biological target: Neu5Ac(a2-3)Gal(b1-3)GlcNAc6S
How it was run: as §1

[16] = biological target: Neu5Ac(a2-3)Gal(b1-3)[Fuc(a1-4)]GlcNAc
How it was run: as §1

[17] = biological target: Neu5Ac(a2-3)Gal(b1-3)[Fuc(a1-4)]GlcNAc(b1-3)Gal(b1-3)[Fuc(a1-4)]GlcNAc
How it was run: as §1

[18] = biological target: Neu5Ac(a2-3)Gal(b1-3)[Fuc(a1-4)]GlcNAc(b1-3)Gal(b1-4)[Fuc(a1-3)]GlcNAc
How it was run: as §1

[19] = biological target: Neu5Ac(a2-3)Gal(b1-3)[GlcNAc(b1-6)]GalNAc
How it was run: as §1

[20] = biological target: Neu5Ac(a2-3)Gal(b1-3)[Neu5Ac(a2-6)]GalNAc
How it was run: as §1

[21] = biological target: Neu5Ac(a2-3)Gal(b1-3)[Neu5Ac(a2-6)]GlcNAc(b1-3)[Fuc(a1-3)[Gal(b1-4)]GlcNAc(b1-6)]Gal(b1-4)Glc
How it was run: as §1

[22] = biological target: Neu5Ac(a2-3)Gal(b1-3)]Neu5Ac(a2-3)Gal(b1-4)]GlcNAc
How it was run: as §1

Neu5Ac(a2-3)Gal(b1-4)Glc = biological target: Neu5Ac(a2-3)Gal(b1-4)Glc
How it was run: as §1

[23] = biological target: Neu5Ac(a2-3)Gal(b1-4)GlcNAc
How it was run: as §1

[24] = biological target: Neu5Ac(a2-3)Gal(b1-4)GlcNAc(b1-2)Man
How it was run: as §1

[25] = biological target: Neu5Ac(a2-3)Gal(b1-4)GlcNAc(b1-2)Man(a1-3)[GlcNAc(b1-4)][Neu5Ac(a2-3)Gal(b1-4)GlcNAc(b1-2)Man(a1-6)]Man(b1-4)GlcNAc(b1-4)GlcNAc
How it was run: as §1

[26] = biological target: Neu5Ac(a2-3)Gal(b1-4)GlcNAc(b1-2)Man(a1-3)[Neu5Ac(a2-3)Gal(b1-4)GlcNAc(b1-2)Man(a1-6)]Man(b1-4)GlcNAc(b1-4)GlcNAc
How it was run: as §1

[27] = biological target: Neu5Ac(a2-3)Gal(b1-4)GlcNAc(b1-2)Man(a1-3)[Neu5Ac(a2-3)Gal(b1-4)GlcNAc(b1-2)Man(a1-6)]Man(b1-4)GlcNAc(b1-4)[Fuc(a1-6)]GlcNAc
How it was run: as §1

[28] = biological target: Neu5Ac(a2-3)Gal(b1-4)GlcNAc(b1-2)Man(a1-3)[Neu5Ac(a2-6)Gal(b1-4)GlcNAc(b1-2)Man(a1-6)]Man(b1-4)GlcNAc(b1-4)GlcNAc
How it was run: as §1

[29] = biological target: Neu5Ac(a2-3)Gal(b1-4)GlcNAc(b1-2)[Neu5Ac(a2-3)Gal(b1-4)GlcNAc(b1-4)]Man(a1-3)[GlcNAc(b1-4)][Neu5Ac(a2-3)Gal(b1-4)GlcNAc(b1-2)[Neu5Ac(a2-3)Gal(b1-4)GlcNAc(b1-6)]Man(a1-6)]Man(b1-4)GlcNAc(b1-4)GlcNAc
How it was run: as §1

[30] = biological target: Neu5Ac(a2-3)Gal(b1-4)GlcNAc(b1-2)[Neu5Ac(a2-3)Gal(b1-4)GlcNAc(b1-4)]Man(a1-3)[GlcNAc(b1-4)][Neu5Ac(a2-3)Gal(b1-4)GlcNAc(b1-4)Man(a1-6)]Man(b1-4)GlcNAc(b1-4)GlcNAc
How it was run: as §1

[31] = biological target: Neu5Ac(a2-3)Gal(b1-4)GlcNAc(b1-2)[Neu5Ac(a2-3)Gal(b1-4)GlcNAc(b1-6)]Man(a1-6)[Neu5Ac(a2-3)Gal(b1-4)GlcNAc(b1-2)Man(a1-3)]Man(b1-4)GlcNAc(b1-4)GlcNAc
How it was run: as §1

[32] = biological target: Neu5Ac(a2-3)Gal(b1-4)GlcNAc(b1-2)[Neu5Ac(a2-3)Gal(b1-4)GlcNAc(b1-6)]Man(a1-6)[Neu5Ac(a2-3)Gal(b1-4)GlcNAc(b1-2)Man(a1-3)][GlcNAc(b1-4)]Man(b1-4)GlcNAc(b1-4)GlcNAc
How it was run: as §1

[33] = biological target: Neu5Ac(a2-3)Gal(b1-4)GlcNAc(b1-3)Gal
How it was run: as §1

[34] = biological target: Neu5Ac(a2-3)Gal(b1-4)GlcNAc(b1-3)Gal(b1-3)GlcNAc
How it was run: as §1

[35] = biological target: Neu5Ac(a2-3)Gal(b1-4)GlcNAc(b1-3)Gal(b1-4)GlcNAc
How it was run: as §1

[36] = biological target: Neu5Ac(a2-3)Gal(b1-4)GlcNAc(b1-3)Gal(b1-4)GlcNAc(b1-2)Man(a1-3)[Neu5Ac(a2-3)Gal(b1-4)GlcNAc(b1-3)Gal(b1-4)GlcNAc(b1-2)Man(a1-6)]Man(b1-4)GlcNAc(b1-4)GlcNAc
How it was run: as §1

B1: Cohesin-hLangerin (Homo sapiens) (protein)
chain: LDDLDAVRIKVDTVNAKPGDTVRIPVRFSGIPSKGIANCDFVYSYDPNVLEIIEIEPGDIIVDPNPDKSFDTAVYPDRKIIVFLFAEDSGTGAYAITKDGVFATIVAKVKEGAPNGLSVIKFVEVGGFANNDLVEQKTQFFDGGANVGDTTEPATPTTPVTTPTTTDDLDAASYPRFMGTISDVKTNVQLLKGRVDNISTLDSEIKKNSDGMEAAGVQIQMVNESLGYVRSQFLKLKTSVEKANAQIQILTRSWEEVSTLNAQIPELKSDLEKASALNTKIRALQGSLENMSKLLKRQNDILQVVSQGWKYFKGNFYYFSLIPKTWYSAEQFCVSRNSHLTSVTSESEQEFLYKTAGGLIYWIGLTKAGMEGDWSWVDDTPFNKVQSARFWIPGEPNNAGNNEHCGNIKAPSLQAWNDAPCDKTFLFICKRPYVPSEPHHHHHH
[1]
  glycan array binding signal (z-score): -0.441
[2]
  glycan array binding signal (z-score): -0.418
[3]
  glycan array binding signal (z-score): -0.322
[4]
  glycan array binding signal (z-score): -0.334
[5]
  glycan array binding signal (z-score): -0.091
[6]
  glycan array binding signal (z-score): -0.431
[7]
  glycan array binding signal (z-score): -0.341
[8]
  glycan array binding signal (z-score): 0.296
[9]
  glycan array binding signal (z-score): -0.055
[10]
  glycan array binding signal (z-score): -0.307
[11]
  glycan array binding signal (z-score): -0.423
[12]
  glycan array binding signal (z-score): -0.31
[13]
  glycan array binding signal (z-score): -0.093
[14]
  glycan array binding signal (z-score): -0.162
[15]
  glycan array binding signal (z-score): -0.222
[16]
  glycan array binding signal (z-score): -0.396
[17]
  glycan array binding signal (z-score): 0.712
[18]
  glycan array binding signal (z-score): 3.62
[19]
  glycan array binding signal (z-score): -0.265
[20]
  glycan array binding signal (z-score): -0.282
[21]
  glycan array binding signal (z-score): -0.389
[22]
  glycan array binding signal (z-score): -0.338
Neu5Ac(a2-3)Gal(b1-4)Glc
  glycan array binding signal (z-score): -0.319
[23]
  glycan array binding signal (z-score): -0.425
[24]
  glycan array binding signal (z-score): 0.365
[25]
  glycan array binding signal (z-score): -0.437
[26]
  glycan array binding signal (z-score): -0.437
[27]
  glycan array binding signal (z-score): -0.442
[28]
  glycan array binding signal (z-score): -0.442
[29]
  glycan array binding signal (z-score): -0.417
[30]
  glycan array binding signal (z-score): -0.445
[31]
  glycan array binding signal (z-score): 2.92
[32]
  glycan array binding signal (z-score): -0.447
[33]
  glycan array binding signal (z-score): -0.364
[34]
  glycan array binding signal (z-score): -0.425
[35]
  glycan array binding signal (z-score): -0.398
[36]
  glycan array binding signal (z-score): -0.193
